From PubChem BioAssay AID1963576 (National Center for Advancing Translational Sciences (NCATS), 2024)
The whole screen tested about 46,000 compounds, of which about 60 (0.1%) were called active. Roughly 3% stayed inconclusive and do not appear here. The call rests on the fitted dose curve; in most records, active means well fitted inhibition curve with a large enough effect; inconclusive means small, poorly fitted or top-dose-only effect; inactive means no such curve, though single readings can be large or run the other way. This is one part of the list.

Test: Primary qHTS assay for Inhibitors of ovarian cancer metastasis using an organotypic tumor microenvironment (TME) model. Further: nearly all actives have a fitted effect of over 65% in size.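 On activity change, negative = inhibition: plate controls were DMSO wells for no effect and tomatine positive control wells for full effect.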
Conditions: SKOV3ip1-GFP adhesion/invasion on 3D omental model, fluorescence; series mostly up to 45.8 µM; activity change, negative = inhibition: at the top concentration
In short: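 Primary human omental fibroblast/mesothelial 3D culture pre-formed 48 h. SKOV3ip1-GFP cells added with compounds (0.36-46 umol/L), incubated 2 h RT/16 h 37 C, fixed; GFP cells quantified at 488/509 nm.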

Activity change, negative = inhibition, inactive:
O=C(Cn1cc2c(n1)CCCC2)Nc1cc(C(F)(F)F)ccc1Cl -0.808%
Cc1nnc(N2CCN(c3cccc(Cl)c3)CC2)c2c1nnn2Cc1ccc(F)cc1 1.98%
COc1ccc(C)cc1NC(=O)c1c(C(=O)Nc2cccc(C)c2C)sc2nc(C)cc(=O)n12 3.08%
COc1cccc(-c2nn(C)c3sc(C(=O)NCCc4cccc(C)c4)cc23)c1 8.31%
O=C(Nc1ccc2nc(SCCOc3ccccc3Cl)sc2c1)c1ccco1 -5.53%
CCc1cccc(NC(=O)CSc2n[nH]c(-c3ccccc3Cl)n2)c1 4.85%
CCCNC(=O)Cn1ncc2c3ccccc3n(CCC)c2c1=O 2.76%
CCOc1ccc(OCC)c(NC(=O)c2cnn(-c3ccc(F)cc3)c2C2CCN(C(=O)OC(C)(C)C)CC2)c1 -2.61%
Cn1c(NCCN(CCO)CCCc2ccc([N+](=O)[O-])cc2)cc(=O)n(C)c1=O -11.4%
COc1ccc(-c2ccc(-c3noc(-c4cc(OC)cc(OC)c4)n3)c(OC)n2)cc1 1.29%
COC(=O)Nc1nc2ccc(C(=O)c3ccccc3)cc2[nH]1 9.69%
COc1ccc(-n2ccnc(NCc3cccs3)c2=O)cc1 0.205%
CCOc1ccc2c(c1)c(=O)c(C(=O)c1ccc3c(c1)OCO3)cn2Cc1cccc(F)c1 -2.31%
O=c1c2c3c(sc2nnn1Cc1ccc(F)cc1)CCCC3 9.8%
Cc1ccc(C(=O)Nc2nnc(S(=O)(=O)N(C)Cc3ccc(F)cc3)s2)cc1 -29.8%
CCOc1ccc(-c2nnc(SCC(=O)Oc3ccccc3)o2)cc1 -4.15%
COc1ccc2c(c1)CC(NC(=O)Nc1c(C)cc(C)cc1C)CO2 (configuration not stated) -9.69%
CCOc1ccc(NS(=O)(=O)c2ccc3[nH]cc(C(=O)N(C)Cc4ccccc4)c(=O)c3c2)cc1 0.917%
COc1ccc(NC(=O)c2oc3ccccc3c2NC(=O)c2cc3ccccc3o2)cc1 -1.05%
Cc1ccccc1S(=O)(=O)Cc1ccc(C(=O)NC2CCCCC2)o1 -5.33%

outcome, inactive:
CCCn1cc(S(=O)(=O)c2ccccc2)c(=O)c2cc(F)c(N3CCCCCC3)cc21
CCOC(=O)C1CCCN(C(=O)Cn2ncc3c(C)n(Cc4ccc(F)cc4)c(C)c3c2=O)C1 (configuration not stated)
CCOc1ccc(-n2c(C)nc3cc(C(=O)NCc4ccc(C)cc4)ccc32)cc1
CC1CCCN(c2nc(-c3ccccc3O)nc3ccccc23)C1 (configuration not stated)
CCn1c(=O)cc(SCC(=O)Nc2cc(Cl)ccc2OC)c2ccccc21
Cc1ccc(OC(=O)c2cc(-c3ccc4c(c3)OCCO4)on2)cc1C
CC(=O)N1CCc2c(sc3c2c(=O)n(-c2ccccc2)c(=O)n3CC(=O)Nc2ccccc2C)C1
